Data as given in PubChem BioAssay AID602310 (National Center for Advancing Translational Sciences (NCATS), 2012).
Hit rate of the full screen: of about 410,000 compounds, about 310 (0.076%) were called active. This list was built around the results that the source calls inconclusive (neither active nor inactive); the mix of calls is not that of the screen. Calls follow the shape of the dose curve; as a rule, active = well fitted curve in the direction sought with a large enough effect; inconclusive = small, poorly fitted or top-dose-only effect; inactive = flat fitted curve, though single readings scatter. Potencies of inconclusive entries are doubtful fits and often do not repeat.

Target: DNA dC->dU-editing enzyme APOBEC-3G (Homo sapiens) (UniProt Q9HC16)
Test: qHTS for Inhibitors of Vif-A3G Interactions: qHTS; also: nearly all actives have a fitted effect of over 60% in size
Details: HeLa A3G-eYFP + Vif (tagged APOBEC3G with the HIV-1 protein that degrades it), YFP fluorescence, overnight; series mostly up to 46.1 µM
Outline: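 HeLa cells stably expressing Vif and C-terminally eYFP-tagged A3G, seeded overnight at 37 deg C, then exposed to compound by pintool overnight at 37 deg C. Rise in yellow fluorescence (Ex 488/Em 500-530, Acumen) marks blocked Vif-driven A3G degradation.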
Potency is read from the fitted curve at half-maximal effect; tags tell the direction and shape of the fitted curve.

Chain of UniProt Q9HC16 (Q9HC16 whole entry, looked up): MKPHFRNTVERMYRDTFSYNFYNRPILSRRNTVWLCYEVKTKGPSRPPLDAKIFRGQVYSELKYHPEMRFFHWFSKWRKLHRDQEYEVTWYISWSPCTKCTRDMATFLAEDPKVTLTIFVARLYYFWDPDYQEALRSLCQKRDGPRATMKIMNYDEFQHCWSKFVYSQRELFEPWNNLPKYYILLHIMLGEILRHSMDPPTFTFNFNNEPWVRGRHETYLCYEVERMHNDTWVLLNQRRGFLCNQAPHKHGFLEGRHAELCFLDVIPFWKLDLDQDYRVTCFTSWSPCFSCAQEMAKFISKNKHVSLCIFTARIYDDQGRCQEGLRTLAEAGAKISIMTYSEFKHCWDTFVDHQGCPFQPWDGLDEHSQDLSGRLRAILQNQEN

Compound | Potency
CCCC[C@@H]1CNC(=S)N1CC1CCCCC1 | inactive
COc1ccccc1N=CC1=C(O)CC(c2ccccc2)CC1=O (stereo not given) | inconclusive: 17.8 µM [inhibitor, single point]
C(=Cc1cccnc1)c1ccncc1 | inactive
CCCCCCCCCCCCCCCC(C)C1=NCCN1 (stereo not given) | inactive
CCOC(=O)CNC(=O)C(Cc1ccccc1)NS(=O)(=O)c1cccs1 (stereo not given) | inactive
CCOc1cc(CNC(=O)c2ccc(C)c(NC(=O)c3nsc4ccccc34)c2)ccc1OC | inactive
Cc1cccc(C)c1OCC(=O)N/N=C/c1ccc2c(c1)OCO2 | inconclusive: 1.58 µM [inhibitor, full curve, poor fit]
Cc1cccc2c1-c1sc(C(=O)Nc3nccs3)cc1CO2 | inactive
CCOc1ccc2[nH]c(=O)c(CN(Cc3ccc(F)cc3)C(=O)c3ccco3)cc2c1 | inconclusive: 3.98 µM [inhibitor, full curve]
COC(=O)c1ccc(-n2c(/C=C\c3cccc(Br)c3)nc3ccccc3c2=O)cc1 | inconclusive: 2.82 µM [inhibitor, single point]
Cc1cc(NC(=O)CSc2nc3c(C)cccc3cc2C#N)no1 | inconclusive: 5.01 µM [inhibitor, full curve]
Cc1cccc(/C=C\c2nc3ccccc3c(=O)[nH]2)c1 | inconclusive: 6.31 µM [inhibitor, full curve]
CC(C)(C#N)NC(=O)C1CCCN1S(=O)(=O)c1ccc2ccccc2c1 (stereo not given) | inconclusive: 20 µM [inhibitor, single point]
O=S1(=O)Nc2c(ccc3cccnc23)-c2ccccc21 | active: 7.08 µM
Cc1cc(C)cc(NC(=O)CSc2nncn3c2cc2occc23)c1 | inconclusive: 22.4 µM [inhibitor, single point]
COc1ccc(C(=O)/C=C/c2ccc(OC)c(CN3CCOCC3)c2)cc1 | inconclusive: 17.8 µM [inhibitor, single point]
COC(=O)c1ccc2nc(Nc3nc4ccc(F)cc4s3)sc2c1 | inconclusive: 25.1 µM [inhibitor, single point]
CN(C)CCNC(=O)c1cccc(-c2cnc3c(NC=O)cc(-c4cccc(F)c4)cn23)c1 | inconclusive: 35.5 µM [inhibitor, single point]
CCN(CCCN(C)C)c1ccc(/C=C/c2ccnc3ccccc23)cc1 | inconclusive: 12.6 µM [inhibitor, partial curve, poor fit]
COc1ccc(CCc2cc(OC)c(OC)c(OC)c2)cc1 | inconclusive: 0.126 µM [inhibitor, full curve, poor fit]
